# Experimental data reported in the supplement of paper PMC4723716.
# ± gives the uncertainty stated by the source. The full ranking holds about 9,900 compounds; the median of “viability index relative to DMSO control” is about 1, and the lowest 2% start at about 0.85. This is one part of the list.
# Tested on: Plasmodium falciparum NF54 stage V gametocytes
# Assay: viability index relative to DMSO control (fraction); higher = less gametocyte killing
# Details: 2.5 µM, library set: Broad Institute DOS, incubation time: 72 h
# Procedure, shortened: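 Compound at 2.5 µM was incubated for 72 hr at 37°C under low oxygen with P. falciparum NF54 stage V gametocytes (0.75% gametocytemia, 1.25% hematocrit, 10 µl, serum-free screening medium) in 1,536-well plates. Staining used 3 µl of 2.5 µM MitoTracker Red CMXRos plus 0.13% saponin for one to two hours, and red particles of 20–70 µm2 were counted in one imaged field per well. Each viability index is that count relative to the plate mean of solvent-only wells.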
row,SMILES,viability index
1,C/C=C/c1ccccc1[C@@H]1[C@@H](C#N)N(C(=O)CN2CCOCC2)[C@H]1CO,1.14 ± 0.019
2,CO[C@H](C(=O)N(C)C[C@@H]1OCc2ccccc2-c2ccccc2C(=O)N([C@@H](C)CO)C[C@H]1C)c1ccccc1,0.928 ± 0.063
3,O=C(C[C@@H]1C[C@H]2c3cc(NC(=O)CC4CC4)ccc3O[C@H]2[C@H](CO)O1)NCC1CC1,1.05 ± 0.049
4,CC(C)C#Cc1ccc([C@H]2[C@H](CO)N3C(=O)CN(C(=O)Cc4ccccc4)C[C@@H]23)cc1,1.08 ± 0.08
5,CCC(=O)N1CC2(C1)[C@H](c1ccc(-c3ccc(F)cc3)cc1)[C@@H](CO)N2C(C)=O,1.02 ± 0.016
6,COc1ccc2c3c([C@@H](CO)NC[C@]33CN(C3)C(=O)c3cccc(F)c3)n(C)c2c1,1.01 ± 0.012
7,O=C(CC1CC1)N1[C@H](CO)[C@@H]2c3ccccc3N(S(=O)(=O)c3ccccc3F)C[C@@H]21,0.995 ± 0.11
8,O=C(Nc1ccc(F)cc1)N1[C@@H]2CNC[C@H]1[C@@H]2c1ccc(-c2cccnc2)cc1,1.12 ± 0.092
9,CCCN1C[C@@H](C)[C@H](OC)CN(C)C(=O)c2ccc(NS(=O)(=O)c3cn(C)cn3)cc2OC[C@@H]1C,1.07 ± 0.023
10,CO[C@H]1CN(C)C(=O)c2cc(NC(=O)C3CC3)ccc2OC[C@@H](C)N(Cc2cc(F)ccc2F)C[C@@H]1C,1.03 ± 0.048
11,CO[C@H]1CN(C)C(=O)c2ccc(NC(=O)c3cc(C)on3)cc2OC[C@H](C)NC[C@@H]1C,0.863 ± 0.24
12,COc1ccc2c3c([C@@H](CO)N(Cc4cccc(Cl)c4)C[C@]33CCN(CC3)C(=O)C3CC3)n(C)c2c1,0.945 ± 0.045
13,COCC(=O)Nc1ccc2c(c1)C(=O)N(C)C[C@H](OC)[C@H](C)CN(CCc1ccccc1)[C@H](C)CO2,0.8876 ± 0.0034
14,O=C(Cc1ccncc1)NCC[C@@H]1CC[C@@H](NS(=O)(=O)c2ccccc2Cl)[C@H](CO)O1,1.16 ± 0.088
15,CC(C)(O)C#Cc1ccc([C@@H]2[C@H]3CN(S(C)(=O)=O)CCCCN3[C@H]2CO)cc1,1.01 ± 0.052
16,COc1ccc(C(=O)Nc2ccc3c(c2)C(=O)N(C)[C@@H]2CC[C@@H](CC(=O)NCC4CC4)O[C@@H]2CO3)cc1,1.03 ± 0.11
17,Cc1ccc(-c2ccccc2[C@H]2[C@@H](CO)N(S(C)(=O)=O)[C@H]2C#N)cc1,1.13 ± 0.088
18,OC[C@H]1Nc2ccc(C#Cc3ccc(F)cc3)cc2[C@@H]2[C@H]1CCN2Cc1ccc2c(c1)OCO2,1.06 ± 0.019
19,COCC(=O)Nc1ccc2c(c1)C(=O)N(C)[C@@H]1CC[C@@H](CC(=O)NCCCN(C)C)O[C@@H]1CO2,0.98 ± 0.039
20,COc1ccc(S(=O)(=O)N(C)C[C@@H]2Oc3c(cccc3N(C)C)C(=O)N([C@H](C)CO)C[C@@H]2C)cc1,1.01 ± 0.049
21,CC(C)CC#Cc1ccc([C@H]2[C@H]3CN(C(=O)Nc4cc(F)ccc4F)CC(=O)N3[C@H]2CO)cc1,1.09 ± 0.032
22,CC(C)NC(=O)N1CC[C@@H]2[C@@H](CO)N(C)c3ccc(-c4ccc(F)cc4)cc3[C@@H]21,1.06 ± 0.021
23,CN1C(=O)c2cc(NC(=O)c3cnccn3)ccc2OC[C@@H]2O[C@H](CC(=O)N[C@@H]3CCN(Cc4ccccc4)C3)CC[C@H]21,1.05 ± 0.031

row,SMILES,viability index
1,COc1cccc(-c2ccc3n(c2=O)C[C@H]2[C@H](CO)[C@@H](C(=O)N(C)C)[C@@H]3N2C(=O)c2ccccn2)c1,1.05 ± 0.052
2,COc1ccccc1CNC(=O)C[C@@H]1C=C[C@@H](NC(=O)CC2CC2)[C@@H](CO)O1,0.976 ± 0.08
3,COCC#Cc1ccc([C@@H]2[C@@H](CO)N3CCCCN(C(=O)NC4CCCC4)C[C@H]23)cc1,1.05 ± 0.029
4,C[C@@H]1CN([C@H](C)CO)C(=O)CCCn2cc(nn2)CO[C@@H]1CN(C)C(=O)Nc1cccc2ccccc12,1.038 ± 0.01
5,CO[C@H](CN(C)S(=O)(=O)c1cn(C)cn1)[C@H](C)CN(C(=O)Nc1ccc(C(F)(F)F)cc1)[C@H](C)CO,0.992 ± 0.096
6,C[C@H](CO)N1C[C@H](C)[C@H](CN(C)C(=O)Nc2ccc3c(c2)OCCO3)OCc2cnnn2CCCC1=O,1.03 ± 0.013
7,COc1ccc(S(=O)(=O)N(C)C[C@H]2Oc3c(NC(=O)c4nc5ccccc5s4)cccc3C(=O)N([C@H](C)CO)C[C@@H]2C)cc1,0.996 ± 0.013
8,COCCNC(=O)C[C@@H]1CC[C@H]2[C@@H](COC[C@H](O)CN2C(=O)c2cc(Cl)cc(Cl)c2)O1,1.02 ± 0.015
9,CN1C(=O)c2cc(NC(=O)Cc3cccs3)ccc2OC[C@@H]2O[C@@H](CC(=O)NCCCN3CCOCC3)CC[C@@H]21,1.09 ± 0.068
10,C[C@@H]1CN([C@H](C)CO)C(=O)CCCn2cc(nn2)CO[C@H]1CN(C)C(=O)Nc1cccc2ccccc12,0.99 ± 0.023
11,C[C@@H]1CCCCO[C@H](CN(C)C(=O)Nc2ccccc2)[C@@H](C)CN([C@H](C)CO)C(=O)c2cc(NC(=O)Nc3ccccc3)ccc2O1,1.1 ± 0.14
12,N#C[C@H]1[C@@H](c2ccccc2-c2ccccc2F)[C@@H](CO)N1C(=O)c1cccc(F)c1,1.16 ± 0.25
13,C[C@H](CO)N1C[C@H](C)[C@H](CN(C)Cc2ccc(C(F)(F)F)cc2)Oc2c(NC(=O)NC3CCCCC3)cccc2C1=O,0.936 ± 0.029
14,O=C(C[C@H]1CC[C@@H](NC(=O)CN2CCOCC2)[C@H](CO)O1)NC1CCC1,1.13 ± 0.11
15,C[C@@H]1CCn2cc(nn2)COC[C@@H](Cc2ccccc2)NC1=O,1.03 ± 0.055
16,CN(C)C(=O)c1cccc(-c2ccccc2[C@H]2[C@H](C#N)N(C(=O)C3CCCCC3)[C@H]2CO)c1,1.06 ± 0.056
17,O=C(CN1CCOCC1)N1CCCCN2[C@H](C1)[C@H](c1ccc(Br)cc1)[C@@H]2CO,0.986 ± 0.015
18,COc1ccc2c3c([nH]c2c1)[C@@H](CO)N(C[C@]31CCN(Cc2cccnc2)CC1)C(=O)c1ccc(F)cc1,0.984 ± 0.1
19,O=C(C[C@@H]1C=C[C@@H](NS(=O)(=O)c2ccccc2)[C@H](CO)O1)NCCN1CCCCC1,1.09 ± 0.12
20,C/C=C/c1ccc([C@H]2[C@@H](C#N)N(c3nc(CC)cs3)[C@H]2CO)cc1,1.09 ± 0.0072
21,COc1ccc2c3c([C@H](CO)N(Cc4ccccc4Cl)C[C@]33CCN(CC3)C(=O)CC3CC3)n(C)c2c1,0.922 ± 0.014
22,CCS(=O)(=O)N1CC(=O)N2[C@H](C1)[C@@H](c1ccc(C#CC3CCCCC3)cc1)[C@@H]2CO,0.98 ± 0.035
23,OC[C@H]1[C@@H](c2ccccc2)C2(CN(Cc3ccccn3)C2)N1Cc1cncnc1,1.08 ± 0.019
